Measured values taken from PubChem BioAssay AID504332 (National Center for Advancing Translational Sciences (NCATS), 2011).
Out of some 350,000 compounds screened, about 31,000 (8.9%) were called active. Inconclusive means that the source gave no clear call. Such entries were picked first, then a sample of the others. Calls follow the shape of the dose curve; as a rule, active = well fitted inhibition curve with a large enough effect; inconclusive = small, poorly fitted or top-dose-only effect; inactive = no such curve, though single readings can be large or run the other way. A potency beside an inconclusive call is a rough fit, not a confirmed value.

biological target: Histone-lysine N-methyltransferase EHMT2 (Homo sapiens) (UniProt Q96KQ7); assay: qHTS Assay for Inhibitors of Histone Lysine Methyltransferase G9a; settings: G9a H3K9 monomethylation, AlphaScreen, 2 h; activity, negative = inhibition: at 59 µM (top of the series) unless noted; also: nearly all actives have a fitted effect of over 75% in size
Sequence of UniProt Q96KQ7 (Q96KQ7 whole entry, looked up): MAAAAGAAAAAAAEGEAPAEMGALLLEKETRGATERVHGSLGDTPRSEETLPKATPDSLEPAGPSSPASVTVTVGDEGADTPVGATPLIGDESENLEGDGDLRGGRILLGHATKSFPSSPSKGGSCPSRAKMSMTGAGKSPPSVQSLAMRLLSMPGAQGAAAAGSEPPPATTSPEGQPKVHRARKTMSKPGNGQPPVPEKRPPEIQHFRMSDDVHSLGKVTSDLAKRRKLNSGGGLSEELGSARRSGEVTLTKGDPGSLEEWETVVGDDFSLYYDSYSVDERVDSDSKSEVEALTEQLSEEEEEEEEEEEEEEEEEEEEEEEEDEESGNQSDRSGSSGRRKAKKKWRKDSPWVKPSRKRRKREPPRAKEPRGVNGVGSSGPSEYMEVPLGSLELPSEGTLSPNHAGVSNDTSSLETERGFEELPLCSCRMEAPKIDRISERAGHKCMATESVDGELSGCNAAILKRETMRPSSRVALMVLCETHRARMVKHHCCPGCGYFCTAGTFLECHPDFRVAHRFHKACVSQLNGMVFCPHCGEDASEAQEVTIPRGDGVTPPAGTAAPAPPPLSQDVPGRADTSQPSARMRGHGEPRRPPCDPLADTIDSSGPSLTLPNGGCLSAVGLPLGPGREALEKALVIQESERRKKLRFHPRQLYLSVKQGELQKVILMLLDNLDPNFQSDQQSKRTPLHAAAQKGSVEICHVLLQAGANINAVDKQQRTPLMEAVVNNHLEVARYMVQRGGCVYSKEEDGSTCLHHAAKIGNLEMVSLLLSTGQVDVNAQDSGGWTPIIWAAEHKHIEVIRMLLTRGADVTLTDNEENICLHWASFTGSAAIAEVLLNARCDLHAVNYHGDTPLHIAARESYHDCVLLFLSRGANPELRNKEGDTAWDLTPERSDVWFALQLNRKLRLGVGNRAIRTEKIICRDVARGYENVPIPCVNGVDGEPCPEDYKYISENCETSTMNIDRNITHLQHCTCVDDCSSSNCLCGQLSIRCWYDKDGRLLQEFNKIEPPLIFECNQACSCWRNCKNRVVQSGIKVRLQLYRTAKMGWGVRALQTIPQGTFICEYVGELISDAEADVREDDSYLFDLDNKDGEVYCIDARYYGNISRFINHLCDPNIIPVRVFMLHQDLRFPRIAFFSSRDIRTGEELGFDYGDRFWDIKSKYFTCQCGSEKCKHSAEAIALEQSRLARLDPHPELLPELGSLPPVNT
Method in brief: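 Enzyme 20 nM + cpd, 15 min RT; add b-H3K9 pep 500 nM / SAM 20 uM; 2 h RT; anti-H3K9me1 Ab 0.5 ug/mL + SA donor / anti-rabbit acceptor beads 20 ug/mL each, 10 min; AlphaScreen read.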
% is scaled to controls: 0 for no effect and ±100 for the full control effect; potency is read from the fitted curve at half-maximal effect; tags tell the direction and shape of the fitted curve.

SMILES	activity, negative = inhibition	Potency
COc1cc(/C=C(\C#N)C(=O)Nc2cccnc2)ccc1OC(C)C	inactive: 39.9%	
Cc1ccc(NC(=O)COC(=O)c2cc(-c3cccs3)nn2-c2ccccc2)cc1[N+](=O)[O-]		inconclusive: 0.794 µM [inhibitor, partial curve, poor fit]
Cc1ccc(NC(=O)c2ccc(CSc3ncnc4nc[nH]c34)cc2)c(C)c1		inconclusive: 70.8 µM [inhibitor, single point]
Cc1ccccc1NC(=O)c1cccc(NC(=O)c2ccco2)c1	inactive: 31% [at 102 µM]	
Cc1c(C)n(Cc2ccc(Cl)cc2)c2ccc(C(=O)NCCCN3CCOCC3)cc12		active: 44.7 µM
CCN(CC)c1ccc(C(=S)N2CCN(c3ccccc3)CC2)cc1		active: 11.2 µM
CCOC(=O)c1sc(Nc2nc3cc4c(cc3s2)OCO4)cc1C		inconclusive: 8.91 µM [inhibitor, single point]
CC(=O)N1CC=C2C(C#N)=C(N)C(C#N)(C#N)[C@H](c3ccoc3)[C@H]2C1	inconclusive: -74.1% [inhibitor]	
CC(=O)c1ccc(N2CCN(C(=O)c3ccco3)CC2)c(F)c1		inconclusive: 1.58 µM [inhibitor, partial curve, poor fit]
Cc1ccc(C)c(-c2cc(C(=O)NNC(=S)NCC(C)C)c3ccccc3n2)c1		active: 10 µM
CCN(CC)c1ccc(NC(=O)CN2CCN(CC(=O)Nc3ccc(Cl)cc3)CC2)cc1		active: 7.08 µM
COc1ccccc1NC(=O)c1ccc(NC(=O)CSc2n[nH]c(N)n2)cc1		inconclusive: 1.78 µM [inhibitor, full curve]
COC(=O)c1ccc(C2C(C(=O)Nc3ccc(C)cc3C)=C(C)Nc3ncnn32)cc1 (stereo unspecified)		inconclusive: 89.1 µM [inhibitor, single point]
CCOC(=O)/C=C1\SCC(=O)N1CC(=O)Nc1cccc(F)c1	inactive: -0.707% [at 102 µM]	
Cc1ccc(C2CC(=O)NC(SCC(=O)OCc3ccccc3)=C2C#N)o1 (stereo unspecified)		inconclusive: 14.1 µM [inhibitor, partial curve, poor fit]
C=C(C)Cn1c(N2CCCC2)nc2c1c(=O)[nH]c(=O)n2C		inconclusive: 15.8 µM [inhibitor, full curve]
O=C(NCCC1=CCCCC1)c1ccc2c(c1)sc1nc(-c3ccc(F)cc3)cn12	inactive: -5.91%	
O=C(COc1ccccc1)NCc1n[nH]c(=S)n1-c1ccccc1		active: 20 µM
COc1ccc(NC(=O)c2cccc(N3CCCS3(=O)=O)c2)c(OC)c1	inactive: -0.161%	
Cc1nn(C)c(C)c1N=Cc1c(O)ccc2ccccc12		inconclusive: 2.24 µM [inhibitor, partial curve, poor fit]
CC(C)Cn1cc(NC(=O)NCc2cccc(Cl)c2)c2ccccc2c1=O		inconclusive: 12.6 µM [inhibitor, partial curve]
O=C(CCCN1C(=O)/C(=C/c2cccs2)SC1=S)Nc1cccc(C(=O)O)c1		inconclusive: 35.5 µM [inhibitor, partial curve, poor fit]
Cc1cccc(C(=O)Nc2cc(Cl)ccc2-n2cncn2)c1[N+](=O)[O-]		inconclusive: 79.4 µM [inhibitor, single point]
Cn1c(=O)c([N+](=O)[O-])c(Oc2ccccc2)c2ccccc21		active: 39.8 µM

SMILES	activity, negative = inhibition	Potency
COCCCn1c2nc3ccccc3nc2c2c(=O)n(-c3ccccc3OC)c(C)nc21		inconclusive: 35.5 µM [inhibitor, single point]
Cc1cc(C)cc(N2Cc3ccccc3C2)c1		active: 10 µM
Cc1ccccc1C(=O)Nc1ccnn1C1CCN(Cc2cnn(C(C)C)c2)CC1		inconclusive: 14.1 µM [inhibitor, partial curve, poor fit]
CSc1nnc(C)c(=O)n1COC(=O)COc1ccc(F)cc1		inconclusive: 100 µM [inhibitor, single point]
Cc1cc(C)c(OCC(=O)N(C)CC(=O)Nc2ccc(N3CCOCC3)cc2)c(C)c1		inconclusive: 79.4 µM [inhibitor, single point]
COc1cc(OC)c(C2CC(=O)Nc3ccc4ccccc4c32)cc1OC (stereo unspecified)		inconclusive: 12.6 µM [inhibitor, partial curve, poor fit]
CCCOc1ccc(CN(C)c2ncnc(N)n2)cc1		inconclusive: 79.4 µM [inhibitor, single point]
O=C(CCOc1ccccc1)N1CCN(c2ccc(O)cc2)CC1		inconclusive: 25.1 µM [inhibitor, full curve, poor fit]
COc1cccc(CC(=O)OCC(=O)NCCc2ccc(F)cc2)c1	inactive: -3.02% [at 12.7 µM]	
COc1ccc(NC(=O)c2ccc(-c3ccc([N+](=O)[O-])cc3)o2)cc1OC		active: 79.4 µM
O=c1c(-c2ccccc2)coc2cc(O)cc(O)c12	inactive: -48% [at 2.33 µM]	
O=[N+]([O-])c1cc(/C=N/Nc2nc(N3CCCCC3)nc(N3CCCCC3)n2)ccc1O		inconclusive: 89.1 µM [inhibitor, single point]
Cc1cccc2cc(CN(CC3CCCO3)C(=O)c3ccco3)c(=O)[nH]c12 (stereo unspecified)		active: 50.1 µM
Cc1cccc(-c2noc(-c3cc(C(C)C)[nH]n3)n2)c1	inactive: -15.8%	
NC(N)=Nc1nc2ccccc2o1		inconclusive: 25.1 µM [inhibitor, full curve]
Cc1ccc(CCNS(=O)(=O)c2ccc3c(c2)C(C(C)C)C(=O)N3)cc1 (stereo unspecified)	inactive: -1.31%	
Cc1nnc(SCC(=O)NC2CCCC2)s1	inactive: -22.1%	
Cc1c(Cl)cccc1NC(=S)N=Nc1c(O)n(CN2CCOCC2)c2ccccc12		inconclusive: 56.2 µM [inhibitor, single point]
CC(C)(C)c1ccc(S(=O)(=O)C(C)(C)C)cc1	inactive: -3.25% [at 102 µM]	
Cc1ccc(CN(C)C(=O)COC(=O)CSc2ccc([N+](=O)[O-])cc2)cc1		inconclusive: 44.7 µM [inhibitor, partial curve, poor fit]
COc1ccccc1NC(=O)CC(C)n1nc(C)cc1C (stereo unspecified)	inactive: 2.51%	
CCNC(=O)c1c(NC(C)=O)sc2c1CCCC2		inconclusive: 89.1 µM [inhibitor, single point]
O=C(c1cccc(F)c1)N1CCCC(C(=O)N2CCCCC2)C1 (stereo unspecified)	inactive: 48.6% [at 102 µM]	
COc1cccc(Nc2nnc(SCN3C(=O)c4ccccc4C3=O)s2)c1		inconclusive: 39.8 µM [inhibitor, single point]

SMILES	activity, negative = inhibition	Potency
O=C(O)CC(C(=O)O)c1ccc(OCCCCOc2ccc(C(CC(=O)O)C(=O)O)cc2)cc1 (stereo unspecified)		active: 79.4 µM
COc1ccc(NC(=O)CCC(=O)N/N=C/c2ccc([N+](=O)[O-])s2)cc1	inactive: -5.57%	
Cc1nc(SCC(=O)N(C)Cc2ccco2)c2c(C)c(C)sc2n1		active: 50.1 µM
CC(C)CC(=O)NC1(C(F)(F)F)C(=O)Nc2c1c(=O)n(C)c(=O)n2C (stereo unspecified)	inactive: 4.39%	
CCN(CC)c1ccc(N=Cc2ccc(N(CC)CC)cc2O)cc1		inconclusive: 0.562 µM [inhibitor, partial curve, poor fit]
COc1ccc2c(c1)CC/C(=C\c1ccc(C)o1)C2=O		active: 50.1 µM
CSc1ccc(S(=O)(=O)N2CCC(C(=O)NCc3ccco3)CC2)cc1		inconclusive: 50.1 µM [inhibitor, partial curve, poor fit]
Cc1cc2ncc(-c3ccccc3)nc2cc1C		inactive
CN(C(=O)c1cccnc1)c1nnc(-c2ccccn2)s1		inconclusive: 1.12 µM [inhibitor, partial curve, poor fit]
CCN1C(=O)C2(C(C(=O)c3ccc(C)o3)=C(O)C(=O)N2CCCN2CCOCC2)c2ccccc21 (stereo unspecified)		inconclusive: 0.891 µM [inhibitor, partial curve, poor fit]
CCOc1ccccc1CNCCCSc1nnnn1C	inactive: -0.767%	
CC(NC(=O)COc1ccc(Br)cc1)C1CCCO1 (stereo unspecified)	inactive: -5.91% [at 102 µM]	
C=CCN1C(=O)/C(=C\c2ccco2)C(C(=O)OC)=C1C		inconclusive: 7.94 µM [inhibitor, full curve, poor fit]
O=c1[nH]c(=O)n(Cc2ccco2)c2c1C(C(F)(F)F)(C(F)(F)F)N=C(c1ccco1)N2		active: 50.1 µM
CS(=O)(=O)c1nsc2nc(=O)c(/C=C3\C=Nc4ccccc43)c(N)n12		inconclusive: 79.4 µM [inhibitor, partial curve, poor fit]
Cc1cc(=O)n2c3ccccc3n(CC(O)CN3CCN(Cc4ccccc4)CC3)c2c1C#N (stereo unspecified)	inconclusive: -61.7% [inhibitor]	
O=C(Nc1cccc(-c2nc3ccccc3s2)c1)c1cc(-n2cnnc2)ccc1Cl		inconclusive: 44.7 µM [inhibitor, partial curve]
CCn1cc(C(=O)N[C@@H](C)C(=O)NCCCn2ccnc2)c(=O)c2cc3c(cc21)OCO3		inconclusive: 79.4 µM [inhibitor, single point]
CN(CC(=O)Nc1ccccc1Cl)C(=O)Cn1cnc2ccc(Cl)cc2c1=O	inactive: -2.42% [at 12.7 µM]	
Cc1cc(C(=O)C(C)Cl)c(C)n1Cc1ccco1 (stereo unspecified)		inconclusive: 63.1 µM [inhibitor, partial curve, poor fit]
Cc1cc(/C=C2\SC(=S)N(Cc3ccco3)C2=O)c(C)n1-c1cccnc1	inconclusive: -97.3% [inhibitor]	
COc1ccc(NC2=CC(c3ccc(F)cc3)N(c3ccc(OC)cc3)C2=O)cc1 (stereo unspecified)		inconclusive: 35.5 µM [inhibitor, single point]
COc1ccccc1/C=C/C(=O)Nc1ccc(S(=O)(=O)Nc2cc(C)on2)cc1		inconclusive: 89.1 µM [inhibitor, single point]
